# Some of the results follow. Sequences were assembled here from the parent chain. Inactive controls read about 0.05.
# B1: TEV protease; numbered along this chain (parent)
# chain: MGESLFKGPRDYNPISSSICHLTNESDGHTTSLYGIGFGPFIITNKHLFRRNNGTLVVQSLHGVFKVKDTTTLQQHLVDGRDMIIIRMPKDFPPFPQKLKFREPQREERICLVTTNFQTKSMSSMVSDTSCTFPSGDGIFWKHWIQTKDGQCGSPLVSTRDGFIVGIHSASNFTNTNNYFTSVPKNFMELLTNQEAQQWVSGWRLNADSVLWGGHKVFMVKPEEPFQPVKEATQL
# Variants of: B1
# Experiment: raw area under fraction-flipped curve 0-4 h after induction (AUC4h, not background-subtracted), DNA-recorder readout of cleavage of the substrate (dimensionless); higher = more cleavage of the substrate by the protease variant
# Conditions: temperature: 34 °C; time window: 0-4 h after rhamnose induction
# Method: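 In vivo DNA recorder in E. coli TOP10(DE3) ΔrhaA at 34 °C. Each TEVp single-site mutant (parent TEVp 0) is paired with a single-site variant of the 7-mer TEVs (canonical ENLYFQ|S). The substrate sits between flexible linkers in a Bxb1-sfGFP-TEVs-SsrA fusion, so cleavage stabilises Bxb1 and speeds flipping of a recombination array, read by NGS. The value is the raw area under the fraction-flipped curve over 0-4 h after rhamnose induction (AUC4h), with ≥20 reads per time point. It is not background-subtracted; inactive controls average about 0.047.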
# 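Further: Bxb1 expression induced with 0.2% (w/v) L-rhamnose at OD600 near 0.5, cultures sampled hourly, flipped fraction per protease–substrate barcode pair counted by paired-end Illumina sequencing.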
Variant,area with substrate ENLYAQS,area with substrate ENLYCQS,area with substrate ENLYDQS,area with substrate ENLYEQS,area with substrate ENLYGQS,area with substrate ENLYHQS,area with substrate ENLYIQS,area with substrate ENLYKQS,area with substrate ENLYMQS,area with substrate ENLYNQS,area with substrate ENLYPQS,area with substrate ENLYQQS,area with substrate ENLYRQS,area with substrate ENLYSQS,area with substrate ENLYTQS,area with substrate ENLYVQS,area with substrate ENLYWQS,area with substrate ENLYYQS,area with substrate ENLYLQS
L22P,0.0264,0.0532,0.0413,0.0441,0.0469,0.0392,0.0538,0.0429,0.0434,0.0423,0.0538,0.0374,0.0505,0.0368,0.0345,0.0225,0.0329,–,–
T23Y,0.0825,–,0.0635,0.0638,–,0.0695,0.101,0.0441,0.0691,0.0691,–,–,0.0832,–,0.079,0.0907,–,0.0595,–
N24E,0.0659,0.0646,0.051,0.0671,0.0633,0.0635,0.138,0.0613,–,0.0623,0.058,0.0667,0.0678,0.0665,–,0.0906,0.0641,0.0574,0.0692
E25N,0.0784,–,0.0601,0.0916,–,0.0692,–,0.0576,0.0938,0.0751,0.082,0.0622,0.0611,–,0.0769,0.112,0.122,–,0.0842
E25Y,0.0363,0.0616,0.0606,0.08,0.0794,0.0588,0.118,0.0649,0.0842,0.0789,0.0646,0.0644,0.0631,0.0716,–,0.143,0.0779,–,–
D27C,0.0566,0.13,0.0617,0.0576,0.0532,0.0643,0.0721,0.0446,0.0831,0.0558,0.0572,0.0555,0.0564,0.069,–,0.111,0.066,–,0.0845
G28D,0.0791,–,0.0642,0.0427,0.063,0.0672,–,0.0687,0.0779,0.0831,0.0677,0.0612,0.0855,0.112,0.076,0.0895,0.117,0.0401,0.0858
H29C,0.0892,–,0.0648,0.0662,0.0719,0.0694,0.122,0.0713,0.0866,–,0.0768,0.0685,0.0591,0.0797,–,0.0642,0.0649,0.134,0.149
H29N,0.101,–,0.055,0.0679,0.0729,0.0653,0.111,0.0631,0.059,0.0638,0.0752,0.0923,0.0376,0.049,0.0784,0.101,0.0774,0.0652,–
T30L,0.0798,0.0782,0.051,0.0714,0.0706,0.0729,0.102,–,0.101,–,0.0786,0.0571,0.0625,0.0707,0.087,0.0802,0.0862,0.0785,–
L33I,0.0794,–,0.0608,0.0587,0.0584,0.0542,0.0591,0.0561,0.0591,0.0647,0.0682,–,0.0733,0.0786,0.0631,0.0974,–,–,–
L33M,0.0716,–,0.0605,0.0682,0.0519,0.0661,0.105,0.0397,0.0637,0.0571,0.0676,0.0562,0.0565,0.0689,0.0475,0.0675,0.0664,0.0672,0.0942
I36H,0.0531,–,–,0.0408,0.0384,0.056,0.0448,0.0253,0.0632,0.0682,0.0659,0.0531,0.0378,–,0.0589,0.0391,0.0364,–,–
I36M,0.0617,0.085,0.0683,0.0614,0.0483,0.0659,0.139,–,0.0891,0.0655,0.0692,0.0635,–,0.0456,–,0.134,0.0778,–,0.0726
I36S,0.0652,–,0.0702,0.0583,0.0536,0.0573,–,0.0476,–,0.0535,–,0.0586,0.0484,0.0646,0.033,–,0.0561,0.05,0.0634
I36W,0.0655,0.0634,–,0.0654,0.0624,0.041,–,–,0.056,0.0443,0.0712,–,0.0542,0.0429,0.036,0.0582,0.0506,0.105,0.0309
F38W,0.0911,–,0.0633,0.0754,0.0642,0.0701,–,0.0697,0.0899,0.0627,0.0753,0.0706,0.059,0.0901,0.0897,0.127,0.0868,–,0.0821
F38Y,0.0718,0.0735,0.0669,0.0731,0.0623,0.0766,0.0681,0.0529,0.112,0.0717,0.0788,–,–,0.0708,0.0834,0.185,0.0845,0.0653,0.101
G39E,0.0522,0.0566,0.0569,0.0343,0.0437,0.0539,–,–,0.0246,0.0341,0.0528,0.0019,0.0449,0.0417,–,–,0.0478,0.0425,–
G39M,0.0404,–,0.0416,0.0483,0.0451,0.0452,0.0384,0.041,0.0388,–,0.0476,0.0381,0.0383,–,–,–,0.0378,0.0428,0.0471
G39R,0.0595,–,0.0427,0.0493,0.0629,0.0575,–,0.0371,0.0396,–,0.0485,0.0428,0.0502,0.0703,0.0482,0.0486,0.0364,0.0147,0.0437
F41I,0.0653,–,0.0609,0.0641,0.072,0.0566,0.105,0.0594,0.0694,0.0673,0.0676,0.0586,0.0625,–,–,0.116,0.075,0.0457,0.0654
I42A,0.0523,0.0577,0.0391,0.055,0.0728,0.0519,0.0703,0.0476,–,–,0.0542,–,0.0481,0.0487,–,0.0737,0.0593,–,–
